Test results published in paper PMC12136788.
The list shows a part of the results.

T1: UNK ZnF1-3 (human, UniProt Q9C0B0 31-174)
T1 sequence: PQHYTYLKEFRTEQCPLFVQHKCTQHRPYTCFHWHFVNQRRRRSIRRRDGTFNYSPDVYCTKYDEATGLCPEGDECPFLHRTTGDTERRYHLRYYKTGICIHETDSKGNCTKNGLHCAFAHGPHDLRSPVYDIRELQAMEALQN

B1: chrX:70775091:70775092:+_ENSG00000147162_ENST00000373719|hu_hu|motif|central (ssRNA)
RNA: GGGAGUUCUACAGUCCGACGAUCAUCAGGGAAAUGUGGUUGUAGUUCGAUAGCCCGCCUGUAGGUGUCUAUUGCCAGAUCGGUCAGGCCUUGCUCAUAGUAUACACAAGCCAGGUUGCCGUGCACCACUGCGUGAUUUGGACUCAACAGAGGAUUGAGCAUCA
B2: chrX:43605437:43605438:+_ENSG00000189221_ENST00000338702|hu_hu|motif|central (ssRNA)
RNA: GGGAGUUCUACAGUCCGACGAUCAAGAAGUUUAAAUCAGCAUUUCCCAAAAGGUGUGUCAGGACUGAGUUAAUCAGUAAGCGGAUAGAAACAACUGCAAUAGACUAGGGAUGAGAUUUCUCAAAGCAGUCUGAUAUAAUAUGCCAACAGAGGAUUGAGCAUCA
B3: chr9:3385818:3385819:+_ENSMUSG00000025899_ENSMUST00000053407|mus_mus|motif|central (ssRNA)
RNA: GGGAGUUCUACAGUCCGACGAUCCCUACAAAAGUUGGAGUUAUAAAAAGAUUUUAACACAAAAGUUUAUCUUCAAAUGCGGUAUAUAUACAAACAUCACAGACUUUUCACAAGUUAAUGUCAAACACCAUACUUAAAAGGCAUCAACAGAGGAUUGAGCAUCA
B4: chr11:93987321:93987322:+_ENSMUSG00000020859_ENSMUST00000103168|mus_hu|FALSE|FALSE (ssRNA)
RNA: GGGAGUUCUACAGUCCGACGAUCUACAAAGUUACAUUCUGAACCCCAGGGAUUCCAUAAUAGAAAUAAAUACUGAAAUAACUACAUUGCUAAAUGAGCUCUUUGCUCAUAGAAAUGAAGCUCAGCCUCUAAGAGACAGCAAGUCAACAGAGGAUUGAGCAUCA
B5: chr11:126104937:126104938:+_ENSG00000197798_ENST00000360194|hu_hu|FALSE|FALSE (ssRNA)
RNA: GGGAGUUCUACAGUCCGACGAUCCUUCCUGGGCUUUUUGGUGGGAGGUUCGCCAUCGUUGAAGAAUCCAAAAAUCUCGUCUAUAUCAGAGGCCUGGCUCCCUGUAGAAGCCAUCCAGUUUCGAGUCUCCUCCAAACGCCACUGCAACAGAGGAUUGAGCAUCA
B6: chr5:32403282:32403283:-_ENSG00000056097_ENST00000265069|hu_mus|motif|central (ssRNA)
RNA: GGGAGUUCUACAGUCCGACGAUCAGAUGUUUUCUUGGCAGCCAUAUUGGUAGGUAUCGCUGACACUUUAGUGUUGGAUGUACGGUUAAGAGACGAGUUUCCUGUAGUUGAAAGACCUUUCACUGAAGAAGUUGCAAUUGAUGACAACAGAGGAUUGAGCAUCA
B7: chr1:163117127:163117128:-_ENSG00000143248_ENST00000313961|hu_mus|hu_hu_hu_mus_False|78_98 (ssRNA)
RNA: GGGAGUUCUACAGUCCGACGAUCUGCUACAAAGGAUGGAGGAAAUAUCACAGGGCAUGAUUUCAUAGCCUGACCAGAUGACUACUUGAUUAGCUCCUUAUAAAAUUCAGAGCGCACAAAGCGGGGCAGAGAAUCCUUCUCCAUCAACAGAGGAUUGAGCAUCA
B8: chr4:76721835:76721836:+_ENSG00000138768_ENST00000264904|hu_mus|hu_hu_hu_mus_True|28_58 (ssRNA)
RNA: GGGAGUUCUACAGUCCGACGAUCGUUUGGCUGGGGUUUCUGAGACGCUCUGGAAUAUAACUCAUGUUUGCUAAUAAUCCUAGUUUCCUCUAUGAAAUUCUCUUUGCAAUCCUCUUCCUCUAUUAGUUGCUUUAGUUUCUCUUUCAACAGAGGAUUGAGCAUCA
B9: 118650776_118652258_1406_CDS_ENSMUSG00000020114_ENSMUST00000020315|mouse|control|control (ssRNA)
RNA: GGGAGUUCUACAGUCCGACGAUCCUUGUAGAACUCCGGGAGCAUCUCAUGCCGUGUGCUAACUACAGCGUCCAGGCACUUAGCAGCCGCGCGUCUCACUUUCCAACUCAUGUCGUCAUCGUCACUAUAUUCAUCGUCACUCCCCAACAGAGGAUUGAGCAUCA
B10: chr7:141450121:141450122:+_ENSG00000106028_ENST00000265304|hu_mus|hu_hu_hu_mus_True|88_98 (ssRNA)
RNA: GGGAGUUCUACAGUCCGACGAUCUCAUCCGUUCUAUUCCUUCUCUUUCGUCUGGUCACUCAGAAAUAUAAUGUUAUCAGCUAUGAUUGUUGUUGCUUGCCGCCUCACAUUGUUUUUAUCCAUGUACUCGCCAUAGUCCACUUUCAACAGAGGAUUGAGCAUCA
B11: chr6:72385097:72385098:-_ENSMUSG00000053907_ENSMUST00000059472|mus_hu|FALSE|FALSE (ssRNA)
RNA: GGGAGUUCUACAGUCCGACGAUCCUGAGAGGUACCAUAAUGGAAAAUGGAGAUAGAUAAUGGAUGAGAAACUCCAAUAGCAUAAGAGACCUGAACAAGAACCCUCCGGCACAGACCUCCUUUAACAAGGGAUUUUGCCACCCACAACAGAGGAUUGAGCAUCA
B12: 245027393_245027513_320_CDS_ENSG00000153187_ENST00000283179|human|control|control (ssRNA)
RNA: GGGAGUUCUACAGUCCGACGAUCUGCUCCCGAGCGCCCAGCGGAAUCCCCGCCCAGGUCUAGGCUGCCGUUCCCGGGCUCCAUGGCGGGGCGGCCCCCGGCCUCCUCGUCGUCCAGCGCAGCCUGGAGUCGCUCCAUGAGCUCCAACAGAGGAUUGAGCAUCA
B13: chr4:41258970:41258971:+_ENSG00000154277_ENST00000284440|hu_hu|motif|central (ssRNA)
RNA: GGGAGUUCUACAGUCCGACGAUCUGAGCUGCAUCUUCGCGGAGCGCCCGGCAGAAAUAGCCUAGGGAAGACGAAAAACAGCGGGCGGAGCCGCCCAGGCUGCAGCUAUAAAGCGCCGGCCAGACGCACUGUGAGGCCUGUGCACAACAGAGGAUUGAGCAUCA
B14: chr10:70718461:70718462:-_ENSMUSG00000019927_ENSMUST00000020085|mus_hu|FALSE|FALSE (ssRNA)
RNA: GGGAGUUCUACAGUCCGACGAUCGUAAAAAUCAAAUGGUUUCAUGGUACAAUGAAACAGUAAACAGUGCUCAAUUUACUGCUAAUGUUGAAAAAAACCUAGAUUUUACAGUACUCUGGUAUAUAUGAAAAUGUUUUUGAUUUUCAACAGAGGAUUGAGCAUCA
B15: 164711283_164711507_869_3pUTR_ENSMUSG00000039849_ENSMUST00000041643|mouse|control|control (ssRNA)
RNA: GGGAGUUCUACAGUCCGACGAUCCGAGCGGAGCAACUCAACAUCAGGGUGUGGAGGCAGGACCUCUGAAGGACCCCUGUGCUUGAUGACAGCAUUGGUCUGGAUGUCCAGGUCCCAGUACACCUCAGUGGGUCGGAGGAGAGCCAACAGAGGAUUGAGCAUCA
B16: chr3:10015032:10015033:+_ENSMUSG00000027533_ENSMUST00000029046|mus_mus|mus_mus_mus_hu_True|8_78 (ssRNA)
RNA: GGGAGUUCUACAGUCCGACGAUCGUUUUUACCAUCACAAGUGAUGAUACAAUCUGGCUUGGCCAUGGCGCCCAUUUUUCGCAAAGCUAUUCCCACUCCUAGCUCCUUCAUGUAUUCAUCAAAGCCUUGGCUUUCCACCAGGCGCAACAGAGGAUUGAGCAUCA
B17: 90399841_90400490_10826_CDS_ENSG00000112159_ENST00000369393|human|control|control (ssRNA)
RNA: GGGAGUUCUACAGUCCGACGAUCCACCAAAAUAUCUGCAAAGUCCUUUUCAUGCAGGGGGAACUGUUUUCUGAACUCCCGUUCUUCCUCCUCCUCUUCACUCAGGGCUGUCCUAGAGUUCCUGCUCCUGUAUCUAUACAGGCCCAACAGAGGAUUGAGCAUCA
B18: 24788528_24788648_645_CDS_ENSG00000090905_ENST00000315183|human|control|control (ssRNA)
RNA: GGGAGUUCUACAGUCCGACGAUCGUUAUUUUGUGGCUGUUGAUUUGUUAAAGCACUGCUUUCUGACUGGCUGUUUAACACCUUAACAGCAGAUCCAAGGUUUGCUGCUAUAACAGGAAAAUGCUGACCCCUCUUUAGAAGCUGCAACAGAGGAUUGAGCAUCA
B19: chr16:50257146:50257147:+_ENSG00000121274_ENST00000436909|hu_mus|motif|central (ssRNA)
RNA: GGGAGUUCUACAGUCCGACGAUCUAUCCGGAUGCCAGUCUUUAAGUAAUUGAAGUGCCGUCCAUAUAAUUCAAAAAACUCGGUUAAGAGAACACCAUAGUUUGUAUUGGGGAUGCAAGCAUCUUCCCUGGGAUGUAACUGAAGCAACAGAGGAUUGAGCAUCA
B20: chr19:8913112:8913113:-_ENSMUSG00000071658_ENSMUST00000096259|mus_hu|FALSE|FALSE (ssRNA)
RNA: GGGAGUUCUACAGUCCGACGAUCAAGCUGGCUUCAAUCUUAAGCUGUUCCACCAUCUUGCGUGCUUGCCCAAUACUCAUAGUGCUGUUCACCGGGGUCUCACCUUUCAUCCUGAAGCCACAAGCGGCAGUAGCAGCCCUGGGUCAACAGAGGAUUGAGCAUCA
B21: chr7:151048522:151048523:+_ENSG00000013374_ENST00000566856|hu_mus|hu_hu_hu_mus_True|28_68 (ssRNA)
RNA: GGGAGUUCUACAGUCCGACGAUCCUGUUUCUUAUUUAUUACGAUCUUGAUGUAAUUUUCUUGAAAUCCAAAGGUUUCAGCUAUUUGACACCUCAGGUCUCUACCAGUGAUGUGCAAGCGGGUCUCCAACAAGCUUUUCUUAUCCAACAGAGGAUUGAGCAUCA
B22: chr2:100010981:100010982:+_ENSG00000158417_ENST00000289371|hu_hu|FALSE|FALSE (ssRNA)
RNA: GGGAGUUCUACAGUCCGACGAUCUUCCAACAUCACUGAAGCCUUCAUAACAUCUUUUUUAUGCACUGGGCCAAUGUUAAUUCCUGCAUAGGGCACUUCUGAUGUUUUCAGAAAUUCCAGUAGAGCUUCCAAAGAACCCAGUGUCAACAGAGGAUUGAGCAUCA

What follows are binders tested against T1, UNK ZnF1-3 (assay: nsRBNS (natural sequence RNA bind-n-seq); RBNS binding buffer (assumed for nsRBNS): 25 mM Tris pH 7.5, 150 mM KCl, 3 mM MgCl2, 0.01% Triton X-100, 500 ug/ml BSA, 20 U/ml SUPERase-In, 4 C; UNK is unkempt and MSI1 is Musashi-1; names of the RNAs are library labels; protein concentration not given here; high values mean tight binding).
In the case of B1, the binding signal is reported as 0.641 enrichment R. In the case of B2, the binding signal is reported as 1.84 enrichment R. B3 showed a binding signal of 0.797 enrichment R. B4 was tested, and the binding signal was 1.24 enrichment R. In the case of B5, the binding signal is reported as 0.96 enrichment R. For B6, the binding signal was 0.931 enrichment R. Work on B7 yielded a binding signal of 1.46 enrichment R. B8 showed a binding signal of 0.439 enrichment R. B9 was tested, and the binding signal was 0.923 enrichment R. With B10 the binding signal was 0.453 enrichment R. B11 showed a binding signal of 1.47 enrichment R. With B12 the binding signal was 0.675 enrichment R. B13 gave a binding signal of 0.721 enrichment R. With B14 the binding signal was 0.454 enrichment R. B15 was tested, and the binding signal was 1.34 enrichment R. With B16 the binding signal was 0.734 enrichment R. B17 showed a binding signal of 0.841 enrichment R. For B18, the binding signal was 0.664 enrichment R. For B19, the binding signal was 1.67 enrichment R. B20 was tested, and the binding signal was 1.02 enrichment R. For B21, the binding signal was 0.594 enrichment R. Work on B22 yielded a binding signal of 0.491 enrichment R.
